Assay results taken from patent US20230103352A1 (ONCOIMMUNE, published 2023).

Biological target: T1, Siglec-10Fc (human, UniProt Q96LC7 17-546)
T1 construct: It was the analyte in the Biacore assay; not shown: Fc part of Siglec-10Fc
T1 sequence (looked up): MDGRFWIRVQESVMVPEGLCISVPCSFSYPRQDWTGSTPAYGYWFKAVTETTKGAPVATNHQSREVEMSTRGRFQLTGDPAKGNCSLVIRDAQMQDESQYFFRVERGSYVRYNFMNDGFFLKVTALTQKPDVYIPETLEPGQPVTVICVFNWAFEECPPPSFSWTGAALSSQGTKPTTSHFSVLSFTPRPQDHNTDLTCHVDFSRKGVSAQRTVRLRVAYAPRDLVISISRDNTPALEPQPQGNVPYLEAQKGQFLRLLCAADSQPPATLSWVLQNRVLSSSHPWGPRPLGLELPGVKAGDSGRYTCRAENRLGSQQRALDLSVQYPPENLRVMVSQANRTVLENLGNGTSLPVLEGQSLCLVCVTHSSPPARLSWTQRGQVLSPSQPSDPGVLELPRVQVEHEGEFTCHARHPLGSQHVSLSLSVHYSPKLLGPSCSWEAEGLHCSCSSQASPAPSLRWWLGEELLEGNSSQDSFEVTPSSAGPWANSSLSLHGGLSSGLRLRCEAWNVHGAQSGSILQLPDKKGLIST
Assay: Biacore (SPR): CD24Fc immobilized on the chip, Siglec-10Fc injected at different concentrations; plot of CD24Fc binding (RU) against Siglec 10 concentration (M) with fitted curve

B1: CD24Fc (Fc fusion)
chain: SETTTGTSSNSSQSTSNSGLAPNPTNATT[left out - human IgG1 Fc]
notes: 6'; also called CD24Ig; CD24IgG1
A Kd of 162 nM was found for B1 in this work.
